According to the BET-seq Pho4 binding data (Le et al. 2018):
The list shows a part of the results. These are noisy estimates, calculated here from bound and input reads.

molecular target: T1, Pho4 (S. cerevisiae) (UniProt P07270); assay: relative binding free energy (BET-seq); higher = weaker binding; settings: reference: library average
T1 sequence: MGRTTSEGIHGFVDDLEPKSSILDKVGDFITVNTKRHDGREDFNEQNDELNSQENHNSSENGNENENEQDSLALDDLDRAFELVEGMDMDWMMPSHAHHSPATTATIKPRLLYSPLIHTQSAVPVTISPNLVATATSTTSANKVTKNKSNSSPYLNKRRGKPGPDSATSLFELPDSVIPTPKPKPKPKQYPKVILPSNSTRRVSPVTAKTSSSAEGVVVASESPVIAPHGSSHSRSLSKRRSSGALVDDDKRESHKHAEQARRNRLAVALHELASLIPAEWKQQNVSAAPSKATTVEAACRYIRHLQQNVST

Sequence	relative binding free energy
ATAGACACGTGGGCGT	-0.12 kcal/mol
TATAGCACGTGTTTAG	-0.15 kcal/mol
TGGTCCACGTGTTGTG	0.03 kcal/mol
AAATGCACGTGTTATA	0.08 kcal/mol
TCGGACACGTGAGTTT	0.31 kcal/mol
TTTTTCACGTGTAAAG	0.29 kcal/mol
TCGGGCACGTGGCAGG	-0.09 kcal/mol
AGGGTCACGTGTTGAT	0.11 kcal/mol
GGGATCACGTGACGTG	0.27 kcal/mol
TTATACACGTGTAAGA	0.14 kcal/mol
GAGGTCACGTGTGCGA	0.17 kcal/mol
GGAACCACGTGCGGGG	0.03 kcal/mol
TATTCCACGTGATTGT	0.14 kcal/mol
TGGTTCACGTGCAGGT	0.28 kcal/mol
GAGCGCACGTGGAGGA	-0.03 kcal/mol
TGGATCACGTGAGTTT	0.45 kcal/mol
AGTAGCACGTGGCTGG	-0.16 kcal/mol
GAAGGCACGTGTGGGG	-0.04 kcal/mol
ATATGCACGTGAGGGT	0.12 kcal/mol
GTGATCACGTGGTAGT	0.1 kcal/mol
GACGCCACGTGGTGTG	0.05 kcal/mol
TGTATCACGTGGAAGG	0.19 kcal/mol
TAGTTCACGTGGGCTA	0.11 kcal/mol

Sequence	relative binding free energy
GATAACACGTGGGGGG	0.01 kcal/mol
TGCGTCACGTGGTTTC	0.15 kcal/mol
TCTTCCACGTGTGGGG	0.08 kcal/mol
TGGTGCACGTGGCTTC	-0.04 kcal/mol
GTCAGCACGTGGCTGG	-0.14 kcal/mol
GTGCACACGTGGGTAG	-0.2 kcal/mol
GGCTACACGTGGTGTT	0.16 kcal/mol
CTGGGCACGTGGCAGT	-0.19 kcal/mol
ATAGGCACGTGGGAAT	-0.22 kcal/mol
TGGTGCACGTGATAGT	0.1 kcal/mol
TATTTCACGTGTAGAC	0.47 kcal/mol
ATGTTCACGTGTAATC	0.24 kcal/mol
GGGATCACGTGGCGTC	0.19 kcal/mol
GTGTTCACGTGTTCGG	0.38 kcal/mol
AGTATCACGTGAATGT	0.33 kcal/mol
GGTATCACGTGTGTTC	0.24 kcal/mol
GGATGCACGTGTTTCG	-0.06 kcal/mol
ATGGGCACGTGGAGAG	-0.12 kcal/mol
GATAACACGTGGTTTT	-0.05 kcal/mol
GTGTTCACGTGAAGGC	0.4 kcal/mol
TTGTACACGTGCGTTC	0.1 kcal/mol
CTAGACACGTGAGGGT	0.27 kcal/mol
CTTATCACGTGGTTGA	0.09 kcal/mol

Sequence	relative binding free energy
TTATTCACGTGTACTA	0.18 kcal/mol
GTTATCACGTGAATCT	0.49 kcal/mol
ATGATCACGTGTATTA	0.17 kcal/mol
ATTAGCACGTGGAGGC	-0.07 kcal/mol
GGTAGCACGTGATTTA	0.05 kcal/mol
TAGATCACGTGAGTTA	0.4 kcal/mol
TTTAACACGTGGTGTC	-0.15 kcal/mol
CATGTCACGTGAGCGG	0.15 kcal/mol
GACATCACGTGGGGCG	0.15 kcal/mol
TTAGACACGTGGATAG	0.13 kcal/mol
AGTAGCACGTGGAAGA	0.03 kcal/mol
TGTGCCACGTGAAATG	0.2 kcal/mol
GCTATCACGTGGGGGC	0.12 kcal/mol
TAGACCACGTGGAGTG	0 kcal/mol
AGTTACACGTGGGTTT	-0.1 kcal/mol
GGTGGCACGTGTATAT	-0.05 kcal/mol
GAAGTCACGTGGTGCA	0.11 kcal/mol
CGGCTCACGTGTAGGT	0.19 kcal/mol
GGTTACACGTGGTATG	0.07 kcal/mol
TTTATCACGTGTTGGT	0.13 kcal/mol
ATTCACACGTGTTGGA	0.19 kcal/mol
ACGTGCACGTGGGAAT	-0.07 kcal/mol
TTCGTCACGTGTGGGA	0.15 kcal/mol

Sequence	relative binding free energy
AAAGGCACGTGGAATG	0 kcal/mol
TTGTCCACGTGGGTCT	-0.06 kcal/mol
TTATTCACGTGGCGCA	0.22 kcal/mol
TTTGCCACGTGGATCG	0.01 kcal/mol
GTGGGCACGTGAGTGC	0.15 kcal/mol
ATTTACACGTGGTGTG	0.06 kcal/mol
TCTTACACGTGGGGTT	-0.02 kcal/mol
GTTGCCACGTGTTGGG	0.02 kcal/mol
GTTTTCACGTGTTATA	0.3 kcal/mol
TTGTGCACGTGCGTGC	-0.14 kcal/mol
CGGGCCACGTGTGGGC	0.07 kcal/mol
TGGGTCACGTGTTCCA	0.09 kcal/mol
CTGAGCACGTGGTGGG	-0.16 kcal/mol
GTAGTCACGTGGTGAA	0.12 kcal/mol
AAGGGCACGTGTTGGT	-0.11 kcal/mol
AGAATCACGTGAGTTA	0.42 kcal/mol
TGTTGCACGTGATAAC	0.22 kcal/mol
TAGATCACGTGATGAG	0.35 kcal/mol
CTGCACACGTGGAGGG	0.02 kcal/mol
ATGAACACGTGGTATG	-0.1 kcal/mol
GATAACACGTGTGTGT	0 kcal/mol
TTAGCCACGTGGGTTT	-0.32 kcal/mol
TTTTTCACGTGTGGGC	0.37 kcal/mol

Sequence	relative binding free energy
TTGCGCACGTGGTACG	-0.2 kcal/mol
AGTGTCACGTGTTGCG	0.13 kcal/mol
TGGGACACGTGGCTTC	0.08 kcal/mol
AAGGGCACGTGTTTGC	-0.18 kcal/mol
TGCGTCACGTGTATCG	0.02 kcal/mol
TAGCTCACGTGGGGAG	0 kcal/mol
TCTTACACGTGTTTTG	0.01 kcal/mol
GCTGGCACGTGTGTTG	-0.01 kcal/mol
GTTCGCACGTGGTCTA	-0.12 kcal/mol
GCATTCACGTGTTGAG	0.43 kcal/mol
TGGTTCACGTGCTAGC	0.39 kcal/mol
GGTATCACGTGCATTG	0.18 kcal/mol
ATTGCCACGTGATTAG	0.14 kcal/mol
GATATCACGTGATATG	0.15 kcal/mol
TAGGACACGTGCGCGT	0 kcal/mol
GTGGTCACGTGCGGGG	0.08 kcal/mol
GGAGTCACGTGGTTGG	0.1 kcal/mol
AGTGCCACGTGGAGGC	-0.08 kcal/mol
TGGATCACGTGAAGGA	0.4 kcal/mol
TATTTCACGTGGAGGT	0.22 kcal/mol
TTGTGCACGTGGGTCT	-0.29 kcal/mol
TTGGCCACGTGCAGTT	-0.03 kcal/mol
ATTAGCACGTGTCTGG	-0.13 kcal/mol
